This is an account of results in the supplement of paper PMC11417369.

± gives the standard deviation of the averaged measurements. Some of the results follow.

This assay deals with PfAP2-G AP2 domain (GST-tagged). The experiment in a line: gcPBM binding intensity (ln(normalized median fluorescence intensity)); higher = stronger DNA binding. The essentials: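 The highest Masliner-normalised natural-log median intensity across replicate spots of either probe orientation is reported as binding intensity. GST-tagged P. falciparum DNA-binding domains expressed in E. coli were applied for 1 h to an Agilent 4 × 180k array of primer-extended double-stranded 36-bp intergenic genomic probes plus negative controls, and bound protein was detected with Alexa488 anti-GST antibody and scanned at 488 nm.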
Turning to “TTTATATATAATGTTGCATGTCAAATTTGTATATGG [TGCATGCA_site246]”, the “gcPBM binding intensity (ln)” value is 10.1 ± 0.24.

Take “TGTTCTTATACTAATAGTACTTTTAGGTACTATAAA [XGTACX_site2954]”: the “gcPBM binding intensity (ln)” value turned out to be 11.2 ± 0.83.

As for “TGTAGACATTAATGTAGTACAATATATATATATATT [XGTACX_site8608]”, the “gcPBM binding intensity (ln)” value is 11.5 ± 1.1.

Turning to “AATTTAATTTTTTCGTGTACTTATATAGGAGGTTTT [XGTACX_site8310]”, the “gcPBM binding intensity (ln)” value was 11.4 ± 0.95.

With “CAATTAAAGATATGAACACACATGTGAACTTTCTAT [CACACA_site7796]”, the “gcPBM binding intensity (ln)” value stood at 10.04 ± 0.035.

“TTTCTTATCAACCTTTTTTTTTTTTTTTTATTCTTA [TGCATGCA_negctrl_site162]”: the “gcPBM binding intensity (ln)” value was found to be 9.69 ± 0.028.

Turning to “CCCATATTATAGGTGTGTACATAAAAGTATATATAA [XGTACX_site3629]”, the “gcPBM binding intensity (ln)” value is 11.6 ± 0.95.

Regarding “AGAAGAAATATGTAAAAAATTTTATATTCACACACA [GTGCAC_negctrl_site441]”, the “gcPBM binding intensity (ln)” value is 10.03 ± 0.099.

As for “AAAAAAAAAAAAAAAAAAAAAAAAAAAAAATATATA [GTGCAC_negctrl_site6]”, the “gcPBM binding intensity (ln)” value came out at 11.1 ± 0.62.

With “TTAGGGATGCTGAAATGTACACATTTAAATTATATA [XGTACX_site3000]”, the “gcPBM binding intensity (ln)” value was 11.2 ± 0.86.

Take “AACTCATCTTATAATTGTACATATTTATAAAAAGTA [XGTACX_site6522]”: the “gcPBM binding intensity (ln)” value is 11.2 ± 0.79.

Consider “TGTAGAAATGGGTGCACACACATATATAATATATAT [CACACA_site2507]”, for which the “gcPBM binding intensity (ln)” value worked out at 10.7 ± 0.61.

On to “CGTACTAACATAAAGACACACACCACATATAATAAA [CACACA_site3603]”, for which the “gcPBM binding intensity (ln)” value is 10.3 ± 0.23.

In the case of ATTGTCTTCCTTCTGGTGCGATGTATAGGTAAAGAT, the “gcPBM binding intensity (ln)” value is 10.2 ± 0.21.

For “AATGTAAAACTAATATGTACATATCTCTAAAGAAAT [XGTACX_site8429]”, the “gcPBM binding intensity (ln)” value amounted to 11 ± 0.57.

Turning to “TAAAAGTGATATGTTCGTACGTATTTATATGTAATA [XGTACX_site211]”, the “gcPBM binding intensity (ln)” value was 11.1 ± 0.57.

As for “TGTGTATACTTGTGTATACCAAATTAAAGACGCTTT [CACACA_negctrl_site1359]”, the “gcPBM binding intensity (ln)” value was 10.2 ± 0.18.

Take “AAAAAATAAAAAAGGTGGTCATGTCACAAATACTTT [XGTACX_site7454]”: the “gcPBM binding intensity (ln)” value came out at 11.4 ± 0.93.

“GTATATATATATATATATATATATATATATATATAT [CACACA_negctrl_site609]”: the “gcPBM binding intensity (ln)” value stood at 9.84 ± 0.53.

Regarding “TCTCCATCTTATGAGACATGCACTTTTTATTTAATA [TGCATGCA_site121]”, the “gcPBM binding intensity (ln)” value worked out at 10.2 ± 0.23.

“TTGTGTAAATGTTAAGTGCATTTGGTAAAATATAAA [GTGCAC_site9699]”: the “gcPBM binding intensity (ln)” value turned out to be 10.1 ± 0.17.

Turning to “AAAAAAAAAAAAAAAACACACATACCCATATATTTT [CACACA_site6013]”, the “gcPBM binding intensity (ln)” value stood at 10.29 ± 0.092.

Consider ATGATATGCAATTTAGTGCATAACAAAATTGGTATA, for which the “gcPBM binding intensity (ln)” value stood at 9.895 ± 0.035.

Regarding “TCTTAATTTTTGAAGGTACACACTAATATATTAAAT [CACACA_site1191]”, the “gcPBM binding intensity (ln)” value amounted to 11.2 ± 0.75.

Consider TATAAATGTATACAAGTGCATATTATTCACACATAA, for which the “gcPBM binding intensity (ln)” value was found to be 10.07 ± 0.085.

Regarding “ATAATCCTTAAACACACACACACACTAATAAATAAA [CACACA_site8052]”, the “gcPBM binding intensity (ln)” value turned out to be 10.2 ± 0.4.

For “ATAAAAATTAAAGAATGTACACATATAATATATGTA [XGTACX_site8735]”, the “gcPBM binding intensity (ln)” value amounted to 11.3 ± 0.83.

For “AAAAGTTATAGACACACACACATATAAATATAGATT [CACACA_site6617]”, the “gcPBM binding intensity (ln)” value is 10.1 ± 0.16.

With “TTGTTTCCTTAATATTCACACACATATATATAATAT [CACACA_site8553]”, the “gcPBM binding intensity (ln)” value is 10.2 ± 0.26.

Regarding “TATTATGACTTAAGTTGTACTGTTGAAAGAAGAAAA [XGTACX_site2985]”, the “gcPBM binding intensity (ln)” value was found to be 10.9 ± 0.49.

As to “TTTTAAAAAAATAAATAAATAGAAAAAAAAAATAAA [TGCATGCA_negctrl_site579]”, the “gcPBM binding intensity (ln)” value was 9.6 ± 0.071.

Turning to “GGATATATTTTATGTACACACATATATAACGGATAT [CACACA_site4847]”, the “gcPBM binding intensity (ln)” value turned out to be 11.5 ± 1.

With “TATCAATGGAAAATATATATTTGTATATATGTAATA [XGTACX_negctrl_site257]”, the “gcPBM binding intensity (ln)” value is 9.69 ± 0.071.

Turning to “CGTATAAATAAATACACACACATATAAATATGTAAA [CACACA_site6236]”, the “gcPBM binding intensity (ln)” value turned out to be 9.97 ± 0.17.

Regarding “TAATATATTGTAGATGCATGCATTAACTATTACAAA [TGCATGCA_site190]”, the “gcPBM binding intensity (ln)” value was found to be 9.72 ± 0.085.

For the sequence “GAAATTATTATATAAACACACATTTATTTTATTTTA [CACACA_site1957]”, the “gcPBM binding intensity (ln)” value amounted to 9.63 ± 0.17.

For the sequence “GTATTATACCATAATGCATGTTAACTTCAAAAGAAA [TGCATGCA_site839]”, the “gcPBM binding intensity (ln)” value came to 10.07 ± 0.099.

“ACAAGCTTTCATAAGGTGCAATGATTTAACAAAAAA [GTGCAC_site9726]”: the “gcPBM binding intensity (ln)” value is 10.1 ± 0.24.

Turning to AATTATTAGCGTGGTGTGCACAAAATTATGGACACA, the “gcPBM binding intensity (ln)” value is 11.2 ± 0.67.

In the case of “TACGTGAAATTATATACACACATAAATATGTCTGTA [CACACA_site3122]”, the “gcPBM binding intensity (ln)” value turned out to be 9.77 ± 0.042.

Regarding “TATAAAAATAATATTACACACATGTAAAATGTCGGT [CACACA_site3264]”, the “gcPBM binding intensity (ln)” value was determined as 9.965 ± 0.035.

Regarding “ACACATGACATCCGTTGTACAATCATCATAAAAATG [XGTACX_site5397]”, the “gcPBM binding intensity (ln)” value worked out at 11.3 ± 0.76.

Take “AGCATTTATGAAAAATGTACACACATCAAATGCTTA [XGTACX_site8749]”: the “gcPBM binding intensity (ln)” value was determined as 11.3 ± 0.88.

On to “AGCAACCCCCTAGCTACACACATATAGATATATATA [CACACA_site951]”, for which the “gcPBM binding intensity (ln)” value came to 10.7 ± 0.4.

In the case of “AAAAAAATAAATAAATACATACATATATATATGTAT [GTGCAC_negctrl_site510]”, the “gcPBM binding intensity (ln)” value came to 9.65 ± 0.22.

As for “AAAAAAAAAAAACACACACACAAAAAAAAATATATA [CACACA_site1105]”, the “gcPBM binding intensity (ln)” value stood at 9.75 ± 0.042.

With “TTGCCCCAGGAGTTCACACACATAATAGATTGTCAC [CACACA_site726]”, the “gcPBM binding intensity (ln)” value was 10.3 ± 0.19.

In the case of “TATATATTATACACGTGTACACATTATAACAATATA [XGTACX_site7799]”, the “gcPBM binding intensity (ln)” value was found to be 11.7 ± 0.77.

Consider “TTTCCCTTAAATTAATGTACATAAATTGAAAATACC [XGTACX_site1602]”, for which the “gcPBM binding intensity (ln)” value stood at 11.3 ± 0.77.

On to “TAAAATTTTTTTGTTTGTACATATATATATATAATA [XGTACX_site5609]”, for which the “gcPBM binding intensity (ln)” value amounted to 11 ± 0.52.

On to “TATTCTATAAATATATTTTTTTAATTTTTTATTTTA [CACACA_negctrl_site307]”, for which the “gcPBM binding intensity (ln)” value was 9.54 ± 0.099.

Regarding “ATATAAGAATTTAAGAGTACATTCACTTCAAATTTA [XGTACX_site2115]”, the “gcPBM binding intensity (ln)” value is 11.1 ± 0.88.

On to “TATGTAAAAAGAGAAAAAAAAAAGAACGATAATTTC [CACACA_negctrl_site946]”, for which the “gcPBM binding intensity (ln)” value is 9.71 ± 0.28.

As to “TTGTAATTCATTCAAATATAAAATAAATAAATATGA [CACACA_negctrl_site349]”, the “gcPBM binding intensity (ln)” value amounted to 9.67 ± 0.11.

For the sequence “AAAATGTGCTTTTCAGTGCAATTTTTTTTGTAATAA [GTGCAC_site9566]”, the “gcPBM binding intensity (ln)” value came to 9.955 ± 0.021.

Turning to “TATTATTATTTTTTATGTACTAACGACAAAAATATT [XGTACX_site252]”, the “gcPBM binding intensity (ln)” value amounted to 11.2 ± 0.86.

On to “AGGTGTATCATAAAATGTACATACATACATACATAA [XGTACX_site4479]”, for which the “gcPBM binding intensity (ln)” value turned out to be 11.3 ± 0.37.
